Data reported in the supplement of paper PMC4604168 (melanoma cell lines).
Some of the results follow. Single values are uncertain, as repeats are few or missing.

How the values were obtained:
Assay in all cases: cell count relative to DMSO control; melanoma cells; higher = more viable cells
Conditions in all cases: library dose: low library concentration; 72 h
COLO792 = system: COLO792
COLO800 = system: COLO800
COLO829 = system: COLO829
G361 = system: G361
IPC-298 = system: IPC-298
IST-MEL1 = system: IST-MEL1
LB2518-MEL = system: LB2518-MEL
LOXIMVI = system: LOXIMVI
MEL-HO = system: MEL-HO
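Note: cell number obtained by counting DAPI-stained nuclei in high-throughput microscope images with image analysis software, screen run in 1,536-well plates.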

NC(=O)c1ccc(N(C(N)=O)c2c(F)cccc2F)nc1-c1ccc(F)cc1F + COc1cc(N2CCC(N3CCN(C)CC3)CC2)ccc1Nc1ncc(Cl)c(Nc2ccccc2S(=O)(=O)C(C)C)n1 [NVP-TAE684] (first compound 0.4 µM, partner dose 0.08 µM)
cell count (COLO792): 93.4% | cell count (COLO800): 56.1% | cell count (COLO829): 89.9% | cell count (G361): 83.3% | cell count (IPC-298): 101% | cell count (IST-MEL1): 98.3% | cell count (LB2518-MEL): 98.4% | cell count (LOXIMVI): 105% | cell count (MEL-HO): 98.8%

Cc1ccc(NC(=O)c2cccc(N(C)C)c2)cc1NC(=O)c1ccc(O)cc1 + O=C(O)c1ccc(-c2c[nH]c3ncc(-c4ccccc4)cc23)cc1C1CCCC1 [GSK650394] (first compound 2 µM, partner dose 0.16 µM)
cell count (COLO792): 107% | cell count (COLO800): 142% | cell count (COLO829): 99.9% | cell count (G361): 92.7% | cell count (IPC-298): 77.7% | cell count (IST-MEL1): 92.3% | cell count (LB2518-MEL): 87.8% | cell count (LOXIMVI): 96.1% | cell count (MEL-HO): 98.2%

Cc1ccc(NC(=O)c2cccc(N(C)C)c2)cc1NC(=O)c1ccc(O)cc1 + CC(C)(C)c1cnc(CSc2cnc(NC(=O)C3CCNCC3)s2)o1 [SNS-032] (first compound 2 µM, partner dose 0.01 µM)
cell count (COLO792): 107% | cell count (COLO800): 90.1% | cell count (COLO829): 108% | cell count (G361): 112% | cell count (IPC-298): 84% | cell count (IST-MEL1): 93% | cell count (LOXIMVI): 153% | cell count (MEL-HO): 96.1%

CCCCCCCCc1ccc(CCC(N)(CO)CO)cc1 [fingolimod] + CC(C)(C)c1cnc(CSc2cnc(NC(=O)C3CCNCC3)s2)o1 [SNS-032] (first compound 2 µM, partner dose 0.01 µM)
cell count (COLO792): 97% | cell count (COLO800): 72.4% | cell count (COLO829): 92.4% | cell count (G361): 111% | cell count (IPC-298): 106% | cell count (IST-MEL1): 101% | cell count (LOXIMVI): 80.6% | cell count (MEL-HO): 97.5%

CCCCCCCCc1ccc(CCC(N)(CO)CO)cc1 [fingolimod] + O=C(O)C(=O)Nc1sc2c(c1C(=O)O)CCNC2 [TCS401] (first compound 2 µM, partner dose 1.66667 µM)
cell count (COLO792): 94.7% | cell count (COLO800): 107% | cell count (COLO829): 93.5% | cell count (G361): 110% | cell count (IPC-298): 103% | cell count (IST-MEL1): 100% | cell count (LB2518-MEL): 103% | cell count (LOXIMVI): 110% | cell count (MEL-HO): 94.5%

NC(=O)c1ccc(N(C(N)=O)c2c(F)cccc2F)nc1-c1ccc(F)cc1F + Cc1ccc(NC(=O)c2cccc(N(C)C)c2)cc1NC(=O)c1ccc(O)cc1 [ZM336372] (first compound 0.4 µM, partner dose 2 µM)
cell count (COLO792): 119% | cell count (COLO800): 117% | cell count (COLO829): 103% | cell count (G361): 95.1% | cell count (IPC-298): 72.8% | cell count (IST-MEL1): 95.2% | cell count (LB2518-MEL): 84.2% | cell count (LOXIMVI): 102% | cell count (MEL-HO): 87.2%

NC(=O)c1ccc(N(C(N)=O)c2c(F)cccc2F)nc1-c1ccc(F)cc1F + COc1cc2c(Oc3ccc4[nH]c(C)cc4c3F)ncnc2cc1OCCCN1CCCC1 [cediranib] (first compound 0.4 µM, partner dose 0.4 µM)
cell count (COLO792): 91.5% | cell count (COLO800): 69.7% | cell count (COLO829): 106% | cell count (G361): 101% | cell count (IPC-298): 103% | cell count (IST-MEL1): 97.5% | cell count (LB2518-MEL): 99.5% | cell count (LOXIMVI): 82.4% | cell count (MEL-HO): 98.5%

NC(=O)c1ccc(N(C(N)=O)c2c(F)cccc2F)nc1-c1ccc(F)cc1F + CCN(CC)CCCCNc1ncc2cc(-c3cc(OC)cc(OC)c3)c(NC(=O)NC(C)(C)C)nc2n1 [PD173074] (first compound 0.4 µM, partner dose 0.1 µM)
cell count (COLO792): 91.2% | cell count (COLO800): 87.7% | cell count (COLO829): 113% | cell count (G361): 93.3% | cell count (IPC-298): 112% | cell count (IST-MEL1): 114% | cell count (LB2518-MEL): 83.8% | cell count (LOXIMVI): 155% | cell count (MEL-HO): 92.7%
